# In PubChem BioAssay AID1346428 (National Center for Advancing Translational Sciences (NCATS), 2018):
# Where “and” joins values, the source holds several entries; their conditions need not be identical. Equal entries are not always repeated. Among all 48,000 compounds or so, about 1,200 (2.5%) were called active. Another 2% or so got no clear call; they are omitted.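 Rule for the calls: active = activation of at least 60% and not above a set upper limit (about 1 call in 100 departs from these limits); inconclusive = activation of 40% to 60%, or above that upper limit; inactive = activation under 40%.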 Some of the results follow.
# Target: Probable G-protein coupled receptor 32 (Homo sapiens) (UniProt O75388)
# Experiment: qHTS for Agonists of Human Resolvin D1 Receptor DRV1; note: 0% is about no effect
# Conditions: CHO-K1 GPR32 beta-arrestin PathHunter luminescence, 90 min; at 76.9 µM; active compounds read high; zero percent set by DMSO-only wells
# Method in brief: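 Step 1: seed CHO-K1 GPR32 beta-arrestin cells, 2,500/well, overnight at 37 °C. Step 2: add compounds, 90 min at 37 °C. Step 3: detection reagent, 1 h ambient, then luminescence.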
# UniProt O75388, sequence (O75388 whole entry, looked up): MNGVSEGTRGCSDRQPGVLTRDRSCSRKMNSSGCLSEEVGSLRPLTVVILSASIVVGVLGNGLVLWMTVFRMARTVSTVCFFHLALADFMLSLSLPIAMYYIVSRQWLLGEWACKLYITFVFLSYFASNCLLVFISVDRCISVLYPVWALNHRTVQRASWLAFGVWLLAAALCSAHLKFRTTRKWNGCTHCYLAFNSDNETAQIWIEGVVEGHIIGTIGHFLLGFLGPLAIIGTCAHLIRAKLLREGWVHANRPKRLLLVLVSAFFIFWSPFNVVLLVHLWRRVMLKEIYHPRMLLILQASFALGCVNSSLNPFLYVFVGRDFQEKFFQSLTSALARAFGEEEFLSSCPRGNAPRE
row,SMILES,activation
1,COc1ccc([N+](=O)[O-])cc1NC(c1nnc(-c2ccccc2)o1)c1ccccc1F (centres undefined),inactive: -24.9%
2,CCc1ccc(S(=O)(=O)c2cn(CC(=O)Nc3ccc(F)c(Cl)c3)c3ccccc3c2=O)cc1,inactive: 3.53%
3,CCN(C(=O)Cn1c(C(=O)OC)cc2sc(Cl)cc21)c1cccc(C)c1,inactive: -10.5%
4,COc1ccc(C2C(=O)N(C3CCCCC3)CC(=O)N2CCc2ccc(C)cc2)cc1OC (centres undefined),inactive: -11.6%
5,CSc1nc(NCCOC(C)=O)c(C#N)c(-c2ccc(C(C)(C)C)cc2)n1,inactive: -24.1%
6,NC(CS)C(=O)O (centres undefined),inactive: -4.95%
7,Cc1ccc2nc(CN3CCN(C(=O)Nc4ccc(F)cc4)CC3)oc2c1,inactive: -2.74%
8,CCc1ccccc1NC(=O)c1cn(C)c(=O)c2ccccc12,inactive: -17.9%
9,CCn1c(COc2ccc(Cl)cc2Cl)nc2ccccc21,inactive: 46.5%
10,COc1c(Cl)cc(Cl)cc1C(=O)Nc1cccc(-c2nc3ccccc3o2)c1C,inactive: 13.6%
11,O=S(=O)(c1ccc(F)cc1)N1CCC(Oc2cccc(C(F)(F)F)c2)CC1,inactive: -14.7%
12,COc1cccc(CNC(=O)C(=O)NCC(c2cccs2)S(=O)(=O)c2ccccc2)c1 (centres undefined),inactive: -6.93%
13,COc1ccc(CCNC(=O)CCCn2c(=O)c3ccccc3n(Cc3ccccc3)c2=O)cc1OC,inactive: -8.4%
14,COc1ccc(S(=O)(=O)N2Cc3ccccc3CC2C(=O)Nc2ccc(C)cc2)cc1OC (centres undefined),inactive: -19.9%
15,Cc1c2cnn(-c3ccccc3)c(=O)c2c(C)n1C(C)C(=O)Nc1ccccc1C(F)(F)F (centres undefined),inactive: -20.9%
16,Cc1cccc(N2CCN(C(=O)c3ccc4c(c3)N(Cc3ccccc3)C(=O)c3ccccc3S4(=O)=O)CC2C)c1 (centres undefined),inactive: -63.8%
17,Cc1cccc(CCNC(=O)c2cc(S(=O)(=O)N3CCCCC3)c[nH]2)c1,inactive: -10.5%
18,C/C=C/c1ccc(OC)cc1,inactive: -4.35%
19,COc1ccc(CCN2C(=O)N(c3cccc(C)c3)C(=O)C2CC(=O)Nc2ccccc2)cc1OC (centres undefined),inactive: -3.07%
20,Clc1ccc(CCNc2nc3cc(Cl)c(Cl)cc3n3cnnc23)cc1,inactive: 0.893%
21,CCOC(=O)CC(NC(=O)Cn1nnc(-c2ccccc2Cl)n1)c1ccc(OC)cc1 (centres undefined),inactive: -7.08%
22,Cc1ccc(C)c(NC(c2ccccc2)c2nnc(-c3ccccc3F)o2)c1 (centres undefined),inactive: -35.7%
23,COc1ccc(-c2nnc(C3CCN(S(=O)(=O)c4cccc(Cl)c4)CC3)o2)cc1,inactive: -6.69%
24,COc1cc(-c2nc(SCC(=O)Nc3ccc4c(c3)OCO4)c(-c3ccccc3)[nH]2)cc(OC)c1OC,inactive: -22.7%
25,COc1ccccc1CNC(=O)CSc1ncc(S(=O)(=O)c2ccc(C)c(Cl)c2)c(=O)[nH]1,inactive: -8.34%
26,COc1ccc(OCCn2c(NC(=O)c3ccc(OC)cc3)nc3ccccc32)cc1,active: 62.8%
27,N=C(N)c1ccc(N)cc1,inactive: 0.216%

row,SMILES,activation
1,COCCCNC(=O)C1CCN(Cc2cc3ccccc3n2Cc2cccc(C)c2)CC1,inactive: 33.8%
2,CCCN(CCC)CCc1cccc2c1CC(=O)N2,inactive: -16% and inactive: -4.13%
3,CNC(=O)C1CCC(Cn2c(=O)c3sccc3n(CC(=O)N3CCCC(C)C3)c2=O)CC1 (centres undefined),inactive: -4.59%
4,CCCCN(C(=O)C1CCC(CNS(=O)(=O)c2cccc3nsnc23)CC1)c1ccccc1 (centres undefined),inactive: 15.3%
5,CCOC(=O)c1c(NC(=O)c2ccc(OCC)c(Br)c2)sc2c1CCCC2,inactive: 13.4%
6,CC(=O)Nc1cc(C(=O)NCc2ccc(F)cc2)ccc1Sc1ccc(F)cc1,inactive: -20.9%
7,Cc1cc2oc(=O)c(CC(=O)NCCc3ccccc3F)c(C)c2c2occ(C(C)(C)C)c12,inactive: -27.1%
8,COc1ccc(CC(=O)NCC(c2cccs2)S(=O)(=O)c2ccc(F)c(C)c2)cc1 (centres undefined),inactive: -7.18%
9,Cc1ccc(C)c(S(=O)(=O)c2nnn3c2nc(N2CCN(C)CC2)c2sccc23)c1,inactive: -25.9%
10,O=c1c2cc3c(cc2nc2sc(Nc4cccc([N+](=O)[O-])c4)nn12)OCO3,inactive: 0.129%
11,CC(=O)Nc1ccc(NC(=O)CN(C)S(=O)(=O)c2ccc3c(c2)CCCC(=O)N3)cc1,inactive: 18.6%
12,CCc1ccc(CNC(=O)C2CCCN(c3nnc(C)c4c(C)n(-c5ccccc5)nc34)C2)cc1 (centres undefined),inactive: 1.79%
13,COc1ccccc1C(=O)N/C(=C\c1cn(S(=O)(=O)N(C)C)c2ccccc12)C(=O)NCCCn1ccnc1,inactive: 10.7%
14,Cc1ccccc1CSc1ncc(Cl)c(C(=O)Nc2nc3ccc(F)cc3s2)n1,inactive: 10.7%
15,COc1ccccc1C(=O)Nc1nc2n(n1)C(c1ccc(F)cc1)C=C(c1ccc(Cl)cc1)N2 (centres undefined),inactive: 10.7%
16,CCOC(=O)c1cc(S(=O)(=O)NCc2ccc(Cl)cc2)[nH]n1,inactive: -9.7%
17,Cc1cccc(CN2CCC(CNC(=O)Cn3ncc4c([nH]c5ccc(C)cc54)c3=O)CC2)c1,inactive: 4.2%
18,COc1ccccc1NC(=O)C1=C(C)Nc2nc(SC)nn2C1c1ccccc1Cl (centres undefined),inactive: 34.5%
19,COc1ccccc1C(=O)Nc1ccc2nc(SCC(=O)N3CCCc4ccccc43)sc2c1,inactive: -18.1%
20,COc1ccc(OC)c(NC(=O)C2CCCN(S(=O)(=O)c3ccc4c(c3)CCCC(=O)N4)C2)c1 (centres undefined),inactive: -4.17%
21,Cc1cc2n(n1)CCC(=O)N2Cc1ccc(C(=O)Nc2cc(Cl)ccc2C)cc1,inactive: 9.36%
22,COc1ccc(NC(=O)c2ccco2)cc1NC(=O)c1cc(Cl)ccc1OC,inactive: -25.9%
23,O=S1(=O)c2ccccc2N(Cc2cccc(F)c2)c2ccccc21,inactive: 5.15%
24,CCCCN=C(N)N=C(N)N,inactive: 17.6%
25,COc1cccc(-c2cc(C(F)(F)F)nc(NCCc3ccc(OC)c(OC)c3)n2)c1,inactive: -14.2%
26,CSc1ccc(-c2nnn(CC(=O)Nc3sc4c(c3C#N)CCC(C(C)(C)C)C4)n2)cc1 (centres undefined),inactive: 39.9%
27,CCCCOc1ccc(C(C)NC(=O)CN2C(=O)CSc3ccc(S(=O)(=O)N4CCOCC4)cc32)cc1 (centres undefined),inactive: -37.2%
